Test results taken from US9050294B2, “Treatment of neural diseases or conditions” (Royal Institution for the Advancement of Learning/McGill …, priority 2008, dated 2015).

Legend:
[1] = tested on: SOD1^G93A transgenic mice; assay: Fatty acid levels in ALS-affected organs (lumbar spinal cord, brain stem, cerebral cortex); assay type: in vivo, mouse; conditions: at clinical endpoint
[2] = tested on: SOD1^G93A transgenic mice; assay: Plasma lipid peroxidation/oxidative stress markers (NT, MDA) in ALS mouse model; assay type: in vivo
[3] = tested on: SOD1^G93A transgenic mice; assay: Plasma essential fatty acid profiles in ALS mouse model (TLC/ELISA); assay type: in vivo; conditions: for plasma phospholipid-bound DHA: n=8
[4] = tested on: SOD1^G93A transgenic mice; assay: Motor function analysis by Rota-rod in ALS mouse model; assay type: in vivo
Procedure: Motor function was assessed by Rota-rod (Med Associates Inc., St. Albans, Vt.) two times per week beginning at 70 days of age. An acclimatization period of 3 days was implemented before beginning measurements to allow animals to become familiar with the apparatus. Animals were placed on the rod with a constant rotation of 16 rpm and the time latency to fall was used as a measurement of motor function. Animals remaining on the apparatus after 300 seconds were given a perfect score and the trial was ended. Three consecutive trials were performed with a one minute rest period between each trial and the best result of the three trials was recorded. Mice used for plasma analysis were also included in the Rota-rod experiments as it was determined after evaluating their performance that it was not impaired. In the rare event that an animal's performance improved, the lower “pre-improvement” time point was dropped as it was not considered representative of their true ability given the progressive nature of paralysis in SOD1^G93A mice.

humans = conditions: cited from earlier work
[5] = tested on: spinal cord injury (SCI) in BALB/c mice; assay: Histological analysis 28 days after SCI (GFAP tissue sparing, cresyl violet neuron counts, 5-HT innervation); assay type: in vivo, mouse; conditions: 5 mg/kg/day oral
Source text: (§1) Fenretinide preparation and treatment.
(A) For spinal cord injury studies: 28 days post-lesion, mice were perfused with 4% paraformaldehyde in 0.1M phosphate buffer (PB). 5 mm length of the spinal cord containing the lesion site was removed, cryoprotected with 30% sucrose in 0.1M PB, and cut in serial sections (16 μm thick). Serial tissue sections were immunostained using rat polyclonal antibodies against glial fibrillary acidic protein (GFAP) (1/400; Zymed Labs) and rabbit polyclonal antibodies against 5-hydroxytryptamine (5-HT) (1/5000; Sigma, Aldrich). In addition, one series of serial sections of the spinal cord were stained with cresyl violet to quantify neuronal loss. Tissue sections were viewed with an Axioskop™ 2 Plus microscope (Zeiss) and images captured using a QImaging Retiga™ 1300 camera, and quantification done using BioQuant™ Nova Prime image analysis system (BioQuant Image Analysis Corp.). Tissue sparing was calculated by delineating the GFAP stained areas, and neuronal survival was assessed by counting the neuron profiles in the ventral horn below the level of the central canal of the spinal cord in tissue sections stained with cresyl violet. Assessment of serotonergic fiber innervation was performed by calculating the area occupied by serotonergic axons in the ventral horns of spinal cord sections taken at a distance of 1000 μm caudal to the lesion site.

[6] = tested on: microglial cells stimulated with LPS; assay: In vitro microglia activation: TNFα release after LPS stimulation (ELISA); assay type: cell-based, mouse; conditions: from 18 h before and during LPS 10 ng/ml for 6 h, vs untreated cells
Procedure: Mouse microglial cultures were prepared as described previously (Saura J et al., 2003. Glia 44:183-189). Briefly, confluent mixed glial cultures prepared from the neonatal cerebral cortex were treated for 30 min with trypsin (0.08%) in the presence of 0.25 mM EDTA and 0.5 mM Ca^2+. This treatment results in the detachment of an intact layer of cells containing virtually all the astrocytes and leaves a population of firmly attached cells identified as >98% microglia as assessed by counts of CD11b-immunoreactive cells (Saura J et al., (2003) Glia 44:183-189). These microglial cells were stimulated by adding lipopolysaccharides (LPS) (10 ng/ml) in DMEM/F12 with 1% penicillin/streptomycin and 1% vitamins for 6 h. The determination of the LPS concentration and incubation time was based on earlier experiments used to optimize conditions for measuring TNFα release from activated microglia. Treatment with fenretinide (0.625 or 1.25 μM in DMEM/F12) was initiated 18 hours prior to LPS stimulation, and continued together with LPS stimulation. The protocol for fenretinide treatment was based on previous studies on toxicity and reduction of TNFα levels in macrophages. The amount of TNFα released in 50 μl of the conditioned medium was determined by ELISA.

[7] = tested on: mRNA of IL-1β, TNF-α, MCP-1, COX-1, COX-2, iNOS, cPLA2 GIVA, iPLA2 GVIA and sPLA2 GIIA in injured spinal cord; assay: RT-PCR of pro-inflammatory mediator mRNA in injured spinal cord; assay type: in vivo, mouse; conditions: 1 dpi, vs vehicle
Procedure: as §1
A 5 mm length of the spinal cord containing the lesion site was harvested at 1 dpi from experimental and control groups. The three spinal cords were pooled and RNA was extracted using RNeasy™ Lipid Tissue kit (Qiagen, Mississauga, Ontario, Canada). PCR amplification was performed with specific primers for mouse IL-1β, TNF-α, MCP-1, COX-1, COX-2, iNOS, cPLA2 GIVA, iPLA2 GVIA and sPLA2 GIIA (Table I). Peptidylprolyl isomerase A (PPIA) was used as a control to normalize the cDNA samples used for PCR amplification. Changes in mRNA expression between vehicle- and fenretinide-treated samples were quantified as a ratio of the PPIA optical density value using ImageQuant™ 5.0 software.

[8] = tested on: SOD1^G93A transgenic mice; assay: Survival to clinical endpoint in ALS mouse model

SMILES: CC1=C(/C=C/C(C)=C/C=C/C(C)=C/C(=O)Nc2ccc(O)cc2)C(C)(C)CCC1 [fenretinide, all-trans-N-(4-hydroxyphenyl) retinamide]
- AA level in brain stem vs vehicle [1]: Neither AA nor DHA levels reached a significant difference
- DHA level in brain stem vs vehicle [1]: Neither AA nor DHA levels reached a significant difference
- increase in phospholipid-bound DHA in lumbar spinal cord vs vehicle ([1]; p≦0.05): about 28%
- phospholipid-bound arachidonic acid lower in cerebral cortex vs vehicle ([1]; p≦0.05): roughly 10%
- plasma nitrotyrosine (NT) vs control ([2]; 60 days of age): lower levels
- reduction of plasma malonyldialdehyde (MDA) vs control ([2]; 120 days of age, p=0.001): about 38%
- plasma nitrotyrosine (NT): control animals higher than fenretinide-treated mice ([2]; day 120, p≦0.001): 45%
- plasma phospholipid-bound AA vs control ([3]; 60 days of age): slightly lower
- statistically significant differences in plasma ceramide concentrations vs control ([3]; any of the time points (day 60, 90, 120, clinical endpoint)): not observed
- plasma phospholipid-bound AA vs vehicle ([3]; at the clinical endpoint): no significant differences
- plasma phospholipid-bound DHA vs vehicle ([3]; at the clinical endpoint): no significant differences
- plasma total fatty acids vs vehicle ([3]; at the clinical endpoint): no significant differences
- increase of plasma phospholipid-bound DHA vs control ([3]; day 60): about 30%
- plasma phospholipid-bound DHA ([3]; day 60, 5 mg/kg, control 2.22±0.15): 2.88±0.18
- decrease of plasma phospholipid-bound AA vs control ([3]; day 120): about 12%
- increase of plasma phospholipid-bound DHA vs control ([3]; day 120): about 25%
- plasma phospholipid-bound AA ([3]; day 120, n=7, control 39.50±0.94): 34.87±0.91
- plasma phospholipid-bound DHA ([3]; day 120, sham 2.63±0.07): 3.26±0.17
- decline in motor function in sham-treated animals earlier than in fenretinide-treated group (delay of disease onset) ([4]; 5 mg/kg): 2 weeks
- Rota-rod performance (latency to fall) ([4]; day 112, 5 mg/kg fenretinide, 16 rpm, max 300 s, vehicle 162±23): 216 ± 25 s
- Rota-rod performance (latency to fall) ([4]; day 116, 5 mg/kg, vehicle 98±18): 154 ± 27 s
- Rota-rod performance (latency to fall) ([4]; day 119, 5 mg/kg, vehicle 46±13, in s (unit assumed)): 109±27
- generalized vascular damage in humans (humans; Reynolds and Lemons 2001): does not induce generalized vascular damage
- side effects in clinical trials (humans; fenretinide used on a prophylactic basis (Ulukaya and Wood 1999)): minimal side effects
- reduction of tissue loss (GFAP staining) vs vehicle [5]: about 20%
- greater serotonergic innervation in ventral horn vs vehicle ([5]; 1 mm caudal to lesion epicenter): ~60%
- reduction in protein levels of TNFα in supernatant ([6]; 0.625 μM fenretinide): 20%
- reduction in protein levels of TNFα in supernatant ([6]; 1.25 μM fenretinide): 40%
- COX-1 mRNA level [7]: No changes
- COX-2 mRNA level [7]: No changes
- MCP-1 mRNA level [7]: No changes
- cPLA2 GIVA mRNA level reduced [7]: not
- decrease in iNOS mRNA level [7]: 2 fold
- iPLA2 GVIA mRNA level reduced [7]: not
- reduction of sPLA2 GIIA mRNA level [7]: about 50%
- reduction of IL-1β mRNA level ([7]; normalized to PPIA): ~40%
- reduction of TNF-α mRNA level ([7]; normalized to PPIA): about 30%
- median survival ([8]; 5 mg/kg from 30 d of age, vehicle 143.5): 148.5 days
- fenretinide-treated animals alive after all control mice had reached the endpoint ([8]; 5 mg/kg, Kaplan-Meier): 17%
- increase in survival from the onset of disease ([8]; 5 mg/kg, vs control): ~10%
